Test results: PubChem BioAssay AID485294 (National Center for Advancing Translational Sciences (NCATS), 2010)
The campaign covered roughly 370,000 compounds. About 150 (0.041%) were called active. The shares of active, inactive and inconclusive entries below differ from those in the screen. Calls follow the shape of the dose curve; as a rule, active = well fitted inhibition curve with a large enough effect; inconclusive = small, poorly fitted or top-dose-only effect; inactive = flat fitted curve, though single readings scatter. No potency is given beside an inconclusive call; the fits are too rough.

Biological target: Beta-lactamase (Escherichia coli (strain K12)) (UniProt P00811)
Sequence of UniProt P00811 (P00811 whole entry, looked up): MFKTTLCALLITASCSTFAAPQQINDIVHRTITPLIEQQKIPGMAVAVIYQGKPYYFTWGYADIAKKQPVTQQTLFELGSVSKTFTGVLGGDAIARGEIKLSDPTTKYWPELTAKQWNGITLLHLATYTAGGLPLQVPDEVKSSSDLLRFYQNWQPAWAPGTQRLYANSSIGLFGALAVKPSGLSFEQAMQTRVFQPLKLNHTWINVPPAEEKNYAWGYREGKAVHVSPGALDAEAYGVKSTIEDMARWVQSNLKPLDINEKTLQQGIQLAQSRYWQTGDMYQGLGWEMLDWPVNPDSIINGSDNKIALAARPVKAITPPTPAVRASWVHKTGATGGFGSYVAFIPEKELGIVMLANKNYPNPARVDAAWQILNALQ
Assay: qHTS Inhibitors of AmpC Beta-Lactamase (assay with detergent); also: nearly all actives have a fitted effect of over 25% in size
Settings: AmpC hydrolysis of nitrocefin, absorbance 480 nm, 0.01% Triton; series mostly up to 114 µM
Protocol: NIH Molecular Libraries Probe Production Network [MLPCN] NIH Chemical Genomics Center [NCGC] Assay Provider: Professor Brian Shoichet, UCSF Assay Overview: This aggregation profiling approach exploits the sensitivity of aggregate formation to detergent. Inhibition of b-lactamase is measured in the presence and absence of 0.01% Triton X-100. This particular assay had the prescence of 0.01% Triton X-100. See Pubchem assay "Promiscuous and Specific Inhibitors of AmpC Beta-Lactamase (assay without detergent)" for related screen. Compounds that inhibit only in the absence of detergent are considered likely promiscuous aggregators. A screen of 1,030 compounds was performed in Brian Shoichet's lab in 96-well format. AmpC activity was measured by following the absorbance at 480 nm. Nitrocefin is a chromogenic substrate: while nitrocefin is yellow (lmax 390 nm), the product of its hydrolysis is red (lmax 486 nm, 17,000 M-1). AmpC beta lactamase was provided by Shoichet Lab, UCSF.
Buffer: 20 mM phosphate buffer, pH 7.0 Triton X-100: No Detergent screen: 0.0001%, Detergent screen: 0.01%. Reagents/Controls: Buffer in columns 3 and 4 as negative control (no enzyme). 5.3 nM AmpC in columns 1, 2, 5-48. Titration of UCSF compound 9 control (from 10 mM, then 1:2) pin-transferred to column 2. Column 1 is neutral (100% activity). Assay Steps: Six uL of reagents were dispensed to 1536-well Greiner black clear bottom plates. Compounds and controls (23 nL) were transferred via Kalypsys PinTool. The plates were incubated for 15 min at room temperature, and then 2 uL of 800 uM solution of nitrocefin was added to start the reaction. The plates were immediately transferred to and read every 20 seconds for 4 min on ViewLux (Perkin-Elmer) High-throughput CCD imager using 480 nm absorbance protocol. During dispense, reagent bottles were kept submerged into 4 deg C water bath. Keywords: NIH Roadmap, MLSCN, MLI, MLSMR, qHTS, NCGC, AmpC Beta-Lactamase, Aggregation
Potency is read from the fitted curve at half-maximal effect; tags tell the direction and shape of the fitted curve.

| Structure (SMILES) | Potency |
| --- | --- |
| Cc1ccc(S(=O)(=O)Nc2cc(=O)[nH]c(SCc3ccccc3Cl)n2)cc1 | inconclusive [inhibitor, full curve] |
| O=C([O-])c1ccccc1-[n+]1c(-c2ccccc2)cc(-c2ccccc2)cc1-c1ccccc1 | inconclusive [inhibitor, partial curve] |
| COCCn1c(SCC(=O)Nc2ccccc2OC)nc2ccccc2c1=O | inconclusive [inhibitor, partial curve] |
| CCNC(=S)NN(c1ccccc1)c1ccccc1 | inactive |
| COc1ccc(C(=O)Oc2ccc(C(C)=O)cc2)c(OC)c1 | inconclusive [inhibitor, full curve] |
| O=C(Cn1c(=O)nc(-c2ccccc2)c2ccccc21)NCCc1ccc(Cl)cc1 | inactive |
| CC1(C)C=Cc2c(c3c(c4c(=O)c(-c5ccc(O)cc5)coc24)OC(C)(C)CC3)O1 | inconclusive [inhibitor, partial curve] |
| COC(=O)c1oc2ccc(Br)cc2c1NC(C)=O | inconclusive [inhibitor, full curve, poor fit] |
| Cc1nc2ccccn2c1/C(O)=C1\C(=O)C(=O)N(CCN(C)C)C1c1cccnc1 (stereo unspecified) | inconclusive [inhibitor, full curve, poor fit] |
| O=C(/C=C/c1cccc([N+](=O)[O-])c1)NC(=S)Nc1ccccc1C(=O)O | inactive |
| COc1ccc(C(=O)CC(CC(=O)c2ccc(OC)cc2)C(=O)O)cc1 | inconclusive [inhibitor, partial curve, poor fit] |
| Cc1c(C(=O)NNC(=O)c2ccncc2)oc2ccc(Br)cc12 | inconclusive [inhibitor, full curve, poor fit] |
| CCC/C(O)=C1\C(=O)CCCC1=NC(C)C(=O)O (stereo unspecified) | inactive |
| Cc1ccc(N(Cc2ccc([N+](=O)[O-])cc2)C(=O)c2ccco2)cc1C | inconclusive [inhibitor, partial curve] |
| O=C(CCS(=O)(=O)Cc1ccc(Cl)cc1)NCCc1ccccc1 | inconclusive [inhibitor, single point] |
| COc1ccc(NC(=O)CN(C)C(=O)Cc2n[nH]c(=O)c3ccccc23)cc1 | inconclusive [inhibitor, full curve, poor fit] |
| CCC(=O)Nc1cccc(C(=O)OCC(=O)c2ccccc2Cl)c1 | inactive |
| COc1ccc(NC(=O)CC2CCCCC2)cc1OC | inconclusive [inhibitor, full curve] |
| Cc1cccc(OCc2nnc(SCC(=O)N3CCCCC3)o2)c1 | inconclusive [inhibitor, full curve, poor fit] |
| COc1cccc(-c2cc(C(=O)NCCN3CCOCC3)no2)c1 | inconclusive [inhibitor, full curve, poor fit] |
| COc1cc2c(cc1OC)[C@H](Cc1ccc(O)cc1)NCC2 | inconclusive [inhibitor, full curve, poor fit] |
| O=C(O)CCc1nc(-c2ccccc2)c(-c2ccccc2)o1 | inactive |

| Structure (SMILES) | Potency |
| --- | --- |
| O=S(=O)(Nc1ncccn1)c1ccc(NC(=S)NCCc2ccc(Cl)cc2)cc1 | inactive |
| CC(NS(=O)(=O)CCNC(=O)c1ccccc1)c1ccccc1 (stereo unspecified) | inconclusive [inhibitor, full curve, poor fit] |
| Cc1ccc(S(=O)(=O)N(C)CC(=O)NCC(c2ccc(F)cc2)N2CCOCC2)cc1 (stereo unspecified) | inconclusive [inhibitor, full curve, poor fit] |
| COc1ccc(C)cc1NC(=O)c1nnn(Cc2cccc(F)c2)c1N | inconclusive [inhibitor, full curve] |
| COc1cc(OC)cc(C(=O)NCc2ccc3c(c2)OCO3)c1 | inconclusive [inhibitor, single point] |
| COC(=O)c1cc(NS(=O)(=O)c2ccc3c(c2)CCC(=O)N3)cc(C(=O)OC)c1 | inconclusive [inhibitor, full curve, poor fit] |
| O=C(CCCOc1ccccc1)N1CCN(c2ccccc2)CC1 | inconclusive [inhibitor, full curve, poor fit] |
| CS(=O)(=O)Nc1ccc(-c2ccc(/C=C3\SC(N)=NC3=O)o2)cc1 | inconclusive [inhibitor, partial curve, poor fit] |
| Cc1csc(NC(=O)C2CCCC2)n1 | inactive |
| O=c1c2ccccc2cnn1-c1ccc(Br)cc1 | inactive |
| CCOC(=O)C1CCN(S(=O)(=O)c2ccc(Cl)s2)CC1 | inconclusive [inhibitor, full curve, poor fit] |
| c1ccc(CN2CCN(c3nc4ccccc4n4cnnc34)CC2)cc1 | inconclusive [inhibitor, full curve, poor fit] |
| CCCN1CCN(C(=O)c2cc3c(s2)-c2ccccc2OC3)CC1 | inconclusive [inhibitor, partial curve] |
| COc1ccccc1CNC(=O)c1ccccc1NS(C)(=O)=O | inconclusive [inhibitor, single point] |
| COc1ccc(Cc2nnc(SCC(=O)NC3CCCCC3)n2C)cc1 | inconclusive [inhibitor, single point] |
| Cc1cc(=O)c(C(=O)OC(C)C(=O)NC(N)=O)nn1-c1ccc(Cl)cc1 (stereo unspecified) | inactive |
| CCCCCn1c(C(Cc2ccccc2)NC(C)=O)nc2ccccc21 (stereo unspecified) | inconclusive [inhibitor, full curve, poor fit] |
| Cc1cc(C)cc(N2CCN(C(=O)N3CCOCC3)CC2)c1 | inconclusive [inhibitor, full curve] |
| CCCNC(=S)N1CCN(C)CC1 | inconclusive [inhibitor, full curve] |
| Cc1c2cnn(CC(=O)NCC(C)c3ccccc3)c(=O)c2c(C)n1Cc1cccc(Cl)c1 (stereo unspecified) | inactive |
| CC(=O)c1ccccc1OCCCN1CCCCC1 | inactive |
| CCc1ccc(C(=O)c2cnc3ccc(F)cc3c2S(=O)(=O)c2ccccc2)cc1 | inactive |

| Structure (SMILES) | Potency |
| --- | --- |
| Cc1ccc(CN2CCN(/N=C/c3ccc(C)s3)CC2)cc1 | inconclusive [inhibitor, full curve, poor fit] |
| COc1ccc(-n2ncc3c2CC(C)(C)CC3NC(=O)CN2CCOC2=O)cc1 (stereo unspecified) | inconclusive [inhibitor, partial curve, poor fit] |
| CN(C)/C(=N\S(=O)(=O)c1ccc(Cl)cc1)c1ccc(F)cc1 | inconclusive [inhibitor, partial curve] |
| CN(C)CCCNc1oc(-c2ccccc2Cl)nc1S(=O)(=O)c1ccc(F)cc1 | inconclusive [inhibitor, single point] |
| CN(C(=O)c1ccccc1Cl)c1ccccc1 | inconclusive [inhibitor, single point] |
| COc1ccccc1C(=O)NC(=O)COC(=O)Cc1ccccc1[N+](=O)[O-] | inconclusive [inhibitor, full curve] |
| O=C(Cn1ccnc1[N+](=O)[O-])NCc1ccccc1 | inconclusive [inhibitor, full curve, poor fit] |
| COc1ccc(/C(O)=C2/C(=O)C(=O)N(CCCN3CCOCC3)C2c2ccc(N(C)C)cc2)cc1 (stereo unspecified) | inconclusive [inhibitor, full curve, poor fit] |
| COc1ccc(CN2CCN(C3CCSCC3)CC2CCO)c(C)c1C (stereo unspecified) | inactive |
| COc1ccc(OC)c(-c2cc(C(=O)Nc3c(C)n(C)n(-c4ccccc4)c3=O)no2)c1 | inconclusive [inhibitor, full curve, poor fit] |
| CCOC(=O)c1ccc2c(c1)N(CC(=O)N1CCCCC1)C(=O)C(C)(C)O2 | inactive |
| N#Cc1ccccc1OCC(=O)N1N=C(c2cccs2)CC1c1ccco1 (stereo unspecified) | inconclusive [inhibitor, full curve, poor fit] |
| CN1CCCN(S(=O)(=O)c2cccc(Cl)c2Cl)CC1 | inconclusive [inhibitor, single point] |
| CN(C(=O)CSc1ccccc1C(=O)O)C1CCCCC1 | inconclusive [inhibitor, full curve, poor fit] |
| COc1cc(/C=N/NC(=O)/C(=C\c2ccc3c(c2)OCO3)NC(=O)c2ccccc2)ccc1O | inconclusive [inhibitor, full curve, poor fit] |
| CCn1c(CNc2ccccc2Cl)nnc1SCCN1CCCCC1 | inconclusive [inhibitor, partial curve] |
| N#C/C(=C\c1ccc(F)c(F)c1)C(=O)NC1CCCCC1 | inactive |
| Nc1ccc(C(=O)C(=O)c2ccc(N)cc2)cc1 | inconclusive [inhibitor, partial curve, poor fit] |
| Cc1ccccc1OCC(O)Cn1c(N2CCN(c3ccccc3)CC2)nc2c1c(=O)[nH]c(=O)n2C (stereo unspecified) | inconclusive [inhibitor, partial curve, poor fit] |
| CCOC(=O)c1c(C)n(C)c2ccc(OC(=O)c3ccc([N+](=O)[O-])cc3)cc12 | inconclusive [inhibitor, single point] |
| O=C(c1ccc(Br)o1)N1CCN(c2ccc3nnc(-c4ccccc4)n3n2)CC1 | inconclusive [inhibitor, full curve, poor fit] |
| CN(C)c1cccc(NC(=O)NC2(C)CCS(=O)(=O)C2)c1 (stereo unspecified) | inconclusive [inhibitor, partial curve, poor fit] |
